{
  "source": "the supplement of paper PMC9446081",
  "note": "The campaign covered roughly 39,000 compounds. About 220 (0.56%) showed activity. Some of the results follow.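 Note: static incubation at 37 °C against the wild-type strain, values averaged over two biological replicates.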",
  "data": [
    {"tested_on": "Escherichia coli K-12 BW25113", "test": "relative growth (OD600 normalised to plate interquartile mean) (fraction); higher = less growth inhibition, active = 0.2 or less", "conditions": "50 µM; LB; incubation time: overnight (16-24 h)", "values": [
      {"smiles": "Cc1noc(C)c1NC(=O)N(C)C[C@H]1OCCCC[C@H](C)Oc2ccc(NC(=O)CCC(F)(F)F)cc2C(=O)N([C@@H](C)CO)C[C@@H]1C", "relative growth": "inactive: 0.992"},
      {"smiles": "C[C@@H]1CN([C@H](C)CO)C(=O)c2cccc(NS(C)(=O)=O)c2O[C@@H]1CN(C)S(=O)(=O)c1cccs1", "relative growth": "inactive: 0.991"},
      {"smiles": "CO[C@@H](CN(C)S(=O)(=O)c1ccc(C)cc1)[C@@H](C)CN([C@@H](C)CO)S(=O)(=O)c1cccc(Cl)c1", "relative growth": "inactive: 0.982"},
      {"smiles": "Cc1ccc(S(=O)(=O)N(C)C[C@@H]2Oc3ncc(Br)cc3C(=O)N([C@H](C)CO)C[C@@H]2C)cc1", "relative growth": "inactive: 1.02"},
      {"smiles": "Cc1cccc(S(=O)(=O)N2C[C@@H](O)COC[C@H]3O[C@@H](CC(=O)NCCCN4CCOCC4)CC[C@@H]32)c1", "relative growth": "inactive: 0.956"},
      {"smiles": "COC(=O)C[C@H]1CC[C@@H]2[C@H](COC[C@H](O)CN2S(=O)(=O)c2ccccc2C)O1", "relative growth": "inactive: 1"},
      {"smiles": "Cc1cccnc1[C@@H](NC(=O)C1CCN(Cc2ccc(Cl)c(Cl)c2)CC1)c1ccc(Cl)cc1", "relative growth": "inactive: 1.01"},
      {"smiles": "C[C@@H]1CCCCO[C@@H](CN(C)Cc2ccccc2)[C@H](C)CN([C@@H](C)CO)C(=O)c2cc(NC(=O)C3CCCCC3)ccc2O1", "relative growth": "inactive: 1.02"},
      {"smiles": "C[C@@H]1CN([C@H](C)CO)C(=O)c2cccc(NC(=O)c3cnccn3)c2O[C@H]1CN(C)S(=O)(=O)c1ccccc1", "relative growth": "inactive: 0.973"},
      {"smiles": "COc1ccc(NC(=O)N(C)C[C@@H]2OCCCC[C@H](C)Oc3ccc(NC(=O)C4CCCCC4)cc3C(=O)N([C@H](C)CO)C[C@@H]2C)cc1", "relative growth": "inactive: 1"},
      {"smiles": "COCC(=O)N1C[C@H](C)[C@@H](OC)CN(C)C(=O)c2cc(NC(=O)c3cc(C)on3)ccc2OC[C@H]1C", "relative growth": "inactive: 0.979"},
      {"smiles": "C[C@H](CO)N1C[C@H](C)[C@@H](CN(C)Cc2ccc(Oc3ccccc3)cc2)Oc2c(NC(=O)c3nc4ccccc4s3)cccc2C1=O", "relative growth": "inactive: 1.02"},
      {"smiles": "C[C@@H]1CCCCO[C@@H](CN(C)Cc2ccccc2)[C@H](C)CN([C@@H](C)CO)C(=O)c2cc(NC(=O)Nc3ccccc3)ccc2O1", "relative growth": "inactive: 0.981"},
      {"smiles": "C=CCC[C@H](Cc1ccc(F)cc1)C(=O)OC[C@@H](NC(=O)[C@@H](CC=C)CC(=O)N[C@H](CO)Cc1ccccc1)C(C)(C)C", "relative growth": "inactive: 1.02"},
      {"smiles": "Cc1ccc(S(=O)(=O)Nc2ccc3c(c2)C(=O)N([C@H](C)CO)C[C@H](C)[C@H](CN(C)CC2CC2)O3)cc1", "relative growth": "inactive: 0.993"},
      {"smiles": "Cc1noc(C)c1NC(=O)N(C)C[C@@H]1Oc2ccc(NS(=O)(=O)c3cn(C)cn3)cc2CC(=O)N([C@H](C)CO)C[C@H]1C", "relative growth": "inactive: 0.979"},
      {"smiles": "C[C@@H]1CCCCO[C@H](CN(C)CC2CCCCC2)[C@H](C)CN([C@H](C)CO)C(=O)c2cc(NC(=O)Nc3ccccc3)ccc2O1", "relative growth": "inactive: 0.988"},
      {"smiles": "C[C@@H]1CN([C@@H](C)CO)C(=O)c2cc(NS(=O)(=O)c3ccc(Cl)cc3)ccc2O[C@@H](C)CCCCO[C@H]1CN(C)Cc1ccc2c(c1)OCO2", "relative growth": "inactive: 0.992"},
      {"smiles": "C[C@H]1CN([C@@H](C)CO)S(=O)(=O)c2ccc(C#Cc3ccccc3F)cc2O[C@@H]1CN(C)C(=O)c1ccc2c(c1)OCO2", "relative growth": "inactive: 1.04"},
      {"smiles": "CCS(=O)(=O)N1CC[C@]2(CC1)CN([C@H](CO)c1[nH]c3cc(ccc3c12)OC)C(=O)c1ccc(cc1)F", "relative growth": "inactive: 1"},
      {"smiles": "COc1ccc2c(c1OC)C(=O)OC2C1c2c(cc3c(c2OC)OCO3)CCN1C.Cl", "note": "(centres undefined)", "relative growth": "active: 0.0513"},
      {"smiles": "C[C@H]1CN([C@@H](C)CO)S(=O)(=O)c2ccc(C#CC3(O)CCCC3)cc2O[C@@H]1CN(C)C(=O)Cc1cccnc1", "relative growth": "inactive: 1.02"},
      {"smiles": "COc1ccc(S(=O)(=O)Nc2ccc3c(c2)C(=O)N([C@@H](C)CO)C[C@@H](C)[C@H](CN(C)C(=O)Nc2cccc4ccccc24)OCCCC[C@@H](C)O3)cc1", "relative growth": "inactive: 1.03"},
      {"smiles": "NCC(=O)OCc1ccccc1", "relative growth": "inactive: 0.993"},
      {"smiles": "O=C(C[C@@H]1CC[C@@H]2[C@H](COC[C@@H](O)CN2C(=O)Nc2ccc(Cl)cc2)O1)NC1Cc2ccccc2C1", "relative growth": "inactive: 0.935"},
      {"smiles": "Cn1nc(CCO)cc1C(F)(F)F", "relative growth": "inactive: 0.977"},
      {"smiles": "CC(C)NC(=O)Nc1ccc2c(c1)C(=O)N([C@H](C)CO)C[C@H](C)[C@@H](CN(C)Cc1ccc(-c3ccccc3)cc1)O2", "relative growth": "inactive: 0.997"},
      {"smiles": "COc1ccc(CN(C)C[C@@H]2OCCCC[C@H](C)Oc3ccc(NS(=O)(=O)c4ccc(F)cc4)cc3C(=O)N([C@H](C)CO)C[C@H]2C)cc1", "relative growth": "inactive: 0.899"},
      {"smiles": "C[C@@H]1CCCCO[C@H](CN(C)S(=O)(=O)c2ccc(Cl)cc2)[C@H](C)CN([C@H](C)CO)C(=O)c2cc(NS(=O)(=O)c3cccs3)ccc2O1", "relative growth": "inactive: 1.01"},
      {"smiles": "C[C@@H]1CN([C@@H](C)CO)C(=O)c2cc(NC(=O)Cc3ccccc3)ccc2O[C@@H](C)CCCCO[C@H]1CN(C)Cc1ccc2c(c1)OCO2", "relative growth": "inactive: 0.993"},
      {"smiles": "COc1cccc(NC(=O)N2C[C@H](O)COC[C@@H]3O[C@H](CC(=O)NC4Cc5ccccc5C4)CC[C@H]32)c1", "relative growth": "inactive: 0.972"},
      {"smiles": "C[C@H](CO)N1C[C@H](C)[C@H](CN(C)Cc2ccc(C(=O)Nc3ccccc3N)cc2)Oc2c(NC(=O)Nc3ccc(C(F)(F)F)cc3)cccc2C1=O", "relative growth": "inactive: 1.05"},
      {"smiles": "CN1CCN(C(=O)C[C@H]2CC[C@@H]3[C@H](COC[C@H](O)CN3C(=O)C3CCCC3)O2)CC1", "relative growth": "inactive: 0.971"},
      {"smiles": "C[C@H]1CN([C@@H](C)CO)C(=O)c2cc(NC(=O)Nc3ccc4c(c3)OCO4)ccc2O[C@@H]1CN(C)S(=O)(=O)c1cn(C)cn1", "relative growth": "inactive: 0.951"},
      {"smiles": "Cc1noc(C)c1NC(=O)Nc1ccc2c(c1)C(=O)N([C@H](C)CO)C[C@H](C)[C@@H](CN(C)C(=O)Nc1cccc3ccccc13)OCCCC[C@@H](C)O2", "relative growth": "inactive: 0.992"},
      {"smiles": "C[C@@H]1CCCCO[C@@H](CN(C)C(=O)CCCN(C)C)[C@H](C)CN([C@H](C)CO)C(=O)c2cc(NS(=O)(=O)c3cn(C)cn3)ccc2O1", "relative growth": "inactive: 0.991"},
      {"smiles": "C[C@@H]1CN([C@@H](C)CO)C(=O)c2cc(NC(=O)Nc3ccc(C(F)(F)F)cc3)ccc2O[C@@H](C)CCCCO[C@H]1CN(C)C(=O)Nc1cccc2ccccc12", "relative growth": "inactive: 1.01"},
      {"smiles": "Cn1nnc2c1CCN(C(=O)CS(C)(=O)=O)[C@@H]2COCC1CC1", "relative growth": "inactive: 1.01"},
      {"smiles": "CC(C)NC(=O)Nc1ccc2c(c1)CC(=O)N([C@@H](C)CO)C[C@@H](C)[C@H](CN(C)S(=O)(=O)c1cn(C)cn1)O2", "relative growth": "inactive: 1.02"},
      {"smiles": "Cc1ccc(S(=O)(=O)Nc2ccc3c(c2)CC(=O)N([C@@H](C)CO)C[C@@H](C)[C@@H](CN(C)C(=O)NC(C)C)O3)cc1", "relative growth": "inactive: 1.01"},
      {"smiles": "N[C@H](C(=O)O)[C@@H]1CC(Cl)=NO1", "relative growth": "inactive: 1.01"},
      {"smiles": "O=C1CCNc2cc3ccccc3cc21", "relative growth": "inactive: 0.932"},
      {"smiles": "C[C@H](CO)N1C[C@H](C)[C@H](CN(C)C(=O)Nc2ccc(C(F)(F)F)cc2)Oc2ccc(NC(=O)Nc3cccc4ccccc34)cc2C1=O", "relative growth": "inactive: 1.01"},
      {"smiles": "C[C@@H](O)Cn1c(=N)n(C)c2ccccc21", "relative growth": "inactive: 0.989"},
      {"smiles": "COc1ccc(S(=O)(=O)Nc2ccc3c(c2)CC(=O)N([C@@H](C)CO)C[C@@H](C)[C@@H](CN(C)S(=O)(=O)c2ccccc2)O3)cc1", "relative growth": "inactive: 0.919"},
      {"smiles": "C[C@H]1NC(=O)COC12CCN(C(=O)c1cnccn1)CC2", "relative growth": "inactive: 0.971"},
      {"smiles": "C[C@@H]1CCCCO[C@@H](CN(C)C(=O)Cc2ccccc2)[C@H](C)CN([C@H](C)CO)C(=O)c2cc(NC(=O)Nc3ccc(F)cc3)ccc2O1", "relative growth": "inactive: 0.974"},
      {"smiles": "C[C@@H]1CCCCO[C@H](CN(C)S(=O)(=O)c2ccc(Cl)cc2)[C@@H](C)CN([C@H](C)CO)C(=O)c2cc(NC(=O)Nc3cccc4ccccc34)ccc2O1", "relative growth": "inactive: 1.01"},
      {"smiles": "Cc1noc(C)c1NC(=O)N(C)C[C@@H]1Oc2ccc(NC(=O)c3ccncc3)cc2C(=O)N([C@@H](C)CO)C[C@H]1C", "relative growth": "inactive: 1.01"},
      {"smiles": "CC(CCC(=O)[O-])C1CCC2C3C(=O)CC4CC(=O)CCC4(C)C3CC(=O)C12C.[Na+]", "note": "(centres undefined)", "relative growth": "inactive: 1"},
      {"smiles": "Cc1cc2nc(C(=O)N[C@H]3CCN(C)C3)cc(-c3ccccc3Cl)c2c(C)c1-c1ccc(CO)cc1", "relative growth": "inactive: 0.963"},
      {"smiles": "O=C1O[C@H](c2ccccc2)[C@H](c2ccccc2)N2[C@H]1[C@@H](C(=O)Nc1nc3ccccc3s1)[C@]1(C(=O)Nc3ccc(C#CC4(O)CCCCCC4)cc31)[C@H]2c1ccccc1OCCO", "relative growth": "inactive: 1.03"},
      {"smiles": "O=C(CN1CCOCC1)NCC[C@@H]1CC[C@@H](NS(=O)(=O)c2ccc(Cl)cc2)[C@H](CO)O1", "relative growth": "inactive: 1"},
      {"smiles": "CNC(=O)c1ccc(Nc2ncc(C(F)(F)F)c(NCc3nccnc3N(C)S(C)(=O)=O)n2)cc1", "relative growth": "inactive: 1.06"},
      {"smiles": "Cc1noc(C)c1NC(=O)N(C)C[C@H]1Oc2ccc(NC(=O)CCN3CCOCC3)cc2CC(=O)N([C@@H](C)CO)C[C@H]1C", "relative growth": "inactive: 0.971"},
      {"smiles": "COc1ccccc1CNC(=O)C[C@@H]1CC[C@@H]2[C@H](COC[C@@H](O)CN2C(=O)Nc2ccc(F)cc2)O1", "relative growth": "inactive: 0.965"},
      {"smiles": "COc1ccc(S(=O)(=O)Nc2cccc3c2O[C@H](CN(C)S(C)(=O)=O)[C@H](C)CN([C@H](C)CO)C3=O)cc1", "relative growth": "inactive: 1"},
      {"smiles": "COc1ccc(NC(=O)N(C)C[C@@H]2OCCCC[C@@H](C)Oc3ccc(NC(=O)Nc4ccc(C(F)(F)F)cc4)cc3C(=O)N([C@@H](C)CO)C[C@@H]2C)cc1", "relative growth": "inactive: 0.99"},
      {"smiles": "Cc1cc(C)c(S(=O)(=O)NCCO)cc1C", "relative growth": "inactive: 0.995"}
    ]}
  ]
}
